# Source: the supplement of paper PMC4166925
# ± gives the standard deviation of the averaged measurements. Over roughly 33,000 sequences, “E-score (dimensionless, -0.5 to 0.5)” has its median near -0.049; the highest 2% begin near 0.37. This is one part of the list.
# Test system: T1, PmTbr T-box DNA-binding domain (GST fusion)
# T1 sequence: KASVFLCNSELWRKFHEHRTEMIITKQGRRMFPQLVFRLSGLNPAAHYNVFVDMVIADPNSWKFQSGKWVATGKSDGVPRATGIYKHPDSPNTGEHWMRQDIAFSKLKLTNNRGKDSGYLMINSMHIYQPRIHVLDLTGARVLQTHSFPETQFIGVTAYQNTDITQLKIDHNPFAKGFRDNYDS
# Assay: PBM E-score of 8-mer (E-score (dimensionless, -0.5 to 0.5)); Tbr is Tbrain of the sea star Patiria miniata (Pm) or the sea urchin Strongylocentrotus purpuratus (Sp); higher = stronger binding preference; most listed sequences are background and not binding sites
# Conditions: the construct has about 5 more residues each side
# In short: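 Universal Agilent oligonucleotide arrays, made double-stranded by primer extension, were incubated with 200 nM GST-fused Tbr T-box DNA-binding domain in PBS (pH 7.5). The protein was expressed in BL21 E. coli at 20 °C and purified by glutathione affinity chromatography. After scanning and quantification, the Universal PBM Analysis Suite assigned an enrichment E-score to each ungapped 8-mer, averaged over duplicate arrays.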
row,Sequence,PBM E-score of 8-mer
1,GGGACACC,0.216 ± 0.077
2,ACGTTGTA,0.00283 ± 0.026
3,CAAGTGCC,0.284 ± 0.029
4,CCGGACCG,-0.101 ± 0.036
5,TACAAAGA,-0.249 ± 0.038
6,ACCGATAG,-0.178 ± 0.06
7,AGCAATCC,-0.155 ± 0.027
8,CATCAGAG,-0.207 ± 0.051
9,CCGGCGGA,-0.209 ± 0.019
10,GCTTGAAC,-0.31 ± 0.057
11,CGTCCGCC,-0.0214 ± 0.074
12,GATGCGGA,-0.206 ± 0.022
13,GTCTCTCA,0.0943 ± 0.0041
14,ATAATACC,-0.11 ± 0.039
15,CCTGGAAC,-0.219 ± 0.024
16,GGGTGCAC,-0.0369 ± 0.02
17,CCAGATCA,0.00199 ± 0.013
18,AGGTCAAC,-0.124 ± 0.074
19,ATCGTCGA,0.149 ± 0.01
20,GCTAGAAC,0.13 ± 0.032
21,CCTGGCCA,-0.199 ± 0.054
22,AAGGATGG,-0.224 ± 0.021

row,Sequence,PBM E-score of 8-mer
1,GGGCTGCA,-0.112 ± 0.066
2,GGCTGTAC,0.0347 ± 0.039
3,ATCGACCC,-0.0658 ± 0.05
4,GGTAATGA,-0.0737 ± 0.042
5,CAAATTAG,-0.0267 ± 0.033
6,AAATGTTA,-0.0353 ± 0.054
7,AAGAGGGC,-0.14 ± 0.051
8,ACTGTCCC,-0.00833 ± 0.022
9,TAGTCGCA,0.105 ± 0.03
10,CGAATGCG,-0.000465 ± 0.066
11,CTCAGCCA,-0.126 ± 0.042
12,GCCAAAAC,0.143 ± 0.043
13,CACACCCG,0.426 ± 0.019
14,TAATAAAA,-0.227 ± 0.12
15,CTGATTTC,-0.179 ± 0.0034
16,CAGGGCCA,-0.0506 ± 0.0073
17,AACGCTAT,0.0101 ± 0.0033
18,ACGATCCT,-0.0104 ± 0.021
19,AAGTTATG,-0.0901 ± 0.022
20,ATCTACGA,-0.257 ± 0.059
21,GAAGTATC,0.0124 ± 0.014
22,ACTGGGAA,-0.0647 ± 0.019

row,Sequence,PBM E-score of 8-mer
1,ACGTGAGT,0.0371 ± 0.033
2,CAACCAGG,0.0356 ± 0.061
3,AATCGCTC,-0.168 ± 0.07
4,CCGGTAGA,-0.103 ± 0.024
5,TACGACCA,-0.333 ± 0.012
6,AGAGCACA,-0.168 ± 0.023
7,ACCTATAT,0.143 ± 0.028
8,AGCTCCAG,-0.385 ± 0.0011
9,CCGCGATA,0.214 ± 0.011
10,CATTTTAA,-0.183 ± 0.018
11,GCACGAGA,-0.0965 ± 0.075
12,GCCGGTTA,-0.094 ± 0.1
13,CAATTAGA,-0.0492 ± 0.017
14,CACGTGAC,0.315 ± 0.0075
15,GCTTTTGA,-0.0819 ± 0.08
16,CATCATGG,-0.227 ± 0.0057
17,CCATCGGC,0.0427 ± 0.028
18,CTCTTCAC,0.238 ± 0.029
19,AATAATCA,0.101 ± 0.045
20,AGAGAACT,-0.226 ± 0.058
21,CCGGTGTC,0.247 ± 0.0031
22,ACTTGGTG,0.199 ± 0.044

row,Sequence,PBM E-score of 8-mer
1,ACAGCGTG,0.0787 ± 0.023
2,GACTTCAA,-0.0958 ± 0.057
3,AGCCCGAA,-0.13 ± 0.029
4,CAAGTCGA,0.0656 ± 0.014
5,CGCACGAA,0.108 ± 0.097
6,AAGAGCAG,-0.138 ± 0.12
7,GGTTTATA,-0.151 ± 0.012
8,GATCGTCA,0.0883 ± 0.018
9,ACTCGGAT,-0.114 ± 0.042
10,TCGCTCCA,0.0241 ± 0.008
11,GCACAACA,0.17 ± 0.013
12,AAGCTATG,-0.28 ± 0.016
13,AGGACGCA,-0.204 ± 0.036
14,CCCCGCGG,-0.0837 ± 0.039
15,GGTCGCTA,0.0964 ± 0.017
16,ACCACTGC,-0.1944 ± 0.0013
17,ATATCAGA,-0.16 ± 0.043
18,TCCTCCGA,-0.227 ± 0.031
19,GTAGATAA,-0.124 ± 0.0056
20,TCGCCGAA,0.00162 ± 0.053
21,CGTGTTTC,0.126 ± 0.034
22,ACACAAGT,0.0866 ± 0.059

row,Sequence,PBM E-score of 8-mer
1,TAAGTCCA,-0.197 ± 0.0039
2,GACGCCCC,0.121 ± 0.078
3,ATTCTCTA,-0.17 ± 0.029
4,CCAGATGC,-0.139 ± 0.069
5,CCAAAGAC,-0.123 ± 0.008
6,ATAACCAG,-0.0343 ± 0.1
7,ATCGCCAG,0.284 ± 0.0071
8,AATGAGAT,-0.0533 ± 0.027
9,AAGCGTAG,-0.0469 ± 0.048
10,GCTAGACC,-0.147 ± 0.015
11,ATGCAGGA,-0.208 ± 0.027
12,CATAGAAA,-0.135 ± 0.037
13,GTTACGTA,0.105 ± 0.067
14,CAGGCATG,-0.313 ± 0.066
15,AACGATGT,0.0297 ± 0.039
16,AGCGATCC,-0.0708 ± 0.029
17,AGCTCCCT,-0.0963 ± 0.051
18,GCTCTGGA,-0.229 ± 0.0069
19,CAGCGACG,0.0301 ± 0.087
20,GCGGGATA,-0.125 ± 0.025
21,AGGAGACG,-0.072 ± 0.034
22,CGCAAGAC,0.0568 ± 0.028
